Measured values taken from PubChem BioAssay AID686979 (National Center for Advancing Translational Sciences (NCATS), 2013).
Among all 420,000 compounds or so, about 50,000 (12%) were called active. Inconclusive means that the source gave no clear call. Such entries were picked first, then a sample of the others. The call rests on the fitted dose curve; in most records, active means well fitted inhibition curve with a large enough effect; inconclusive means small, poorly fitted or top-dose-only effect; inactive means flat fitted curve, though single readings scatter. Potencies of inconclusive entries are left out as doubtful fits.

test: qHTS for Inhibitors of human tyrosyl-DNA phosphodiesterase 1 (TDP1): qHTS in cells in presence of CPT; settings: chicken DT40 Tdp1-/-;hTDP1 cells + 20 nM CPT, ATP luminescence, 48 h; activity change, negative = growth inhibition: at 46.2 µM (top of the series) unless noted; further: nearly all actives have a fitted effect of over 55% in size
How it was run: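 Cell growth measured by CellTiter-Glo luminescence after a minimum 48 h, 37 C compound exposure with 20 nM CPT in Tdp1-knockout DT40 cells stably expressing hTDP1, seeded 400/well; qHTS titration format.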
On the % scale 0 is the no-effect control and ±100 the full control effect; potency means the concentration at half of the fitted maximal effect; tags describe the fitted curve by direction and shape.

Row | Compound | activity change, negative = growth inhibition | Potency
1 | O=C(CCNC(=O)c1ccccc1)NN=Cc1ccc(Br)o1 | inactive: 0.385% | –
2 | NNc1nc(-c2ccccc2)cc(-c2ccccc2O)n1 | – | inconclusive [inhibitor, single point]
3 | CCC1CN(C(=O)Nc2cc(Cl)ccc2C(=O)OC)c2ccccc2S1 (configuration not stated) | – | inconclusive [inhibitor, single point]
4 | CN1/C(=C/C(=O)COC(=O)CN2C(=O)C3CC=CCC3C2=O)C(C)(C)c2ccccc21 (configuration not stated) | – | inconclusive [inhibitor, single point]
5 | Cc1ccc(N2C(=O)N(Cc3cccc(Cl)c3)c3ccccc3S2(=O)=O)cc1 | – | inconclusive [inhibitor, single point]
6 | Cc1cccc(-c2nc(C#N)c(N3CCC(C)CC3)o2)c1 | inactive: -4.88% | –
7 | Cn1c2c(c(=O)n(C)c1=O)C(c1ccccc1Cl)C(C#N)=C(N)O2 (configuration not stated) | inactive: -17.1% | –
8 | COc1ccc(C(=O)C[n+]2ccccc2C)cc1 | – | active: 16.4 µM
9 | CC(=O)Nc1ccc2c(c1)ncn2C | inactive: -10.1% | –
10 | COc1ccc(-c2noc(CCC(=O)NCCN3CCN(c4ccccc4F)CC3)n2)cc1 | – | active: 16.4 µM
11 | Cc1cccc2cc(CN(Cc3cccs3)C(=S)NCc3ccco3)c(=O)[nH]c12 | – | inconclusive [inhibitor, single point]
12 | Oc1ccc(-c2nc(-c3ccc(O)c(O)c3)cs2)cc1 | – | active: 8.2 µM
13 | CNC(=S)N(Cc1ccc2c(c1)OCO2)C1CC(=O)N(c2ccc(F)cc2)C1=O (configuration not stated) | – | inconclusive [inhibitor, single point]
14 | Cc1cccc(NC(=O)c2ccc([N+](=O)[O-])s2)n1 | – | active: 8.2 µM
15 | O=c1[nH]cnc2c1ccn2C1OC(CO)C(O)C1O (configuration not stated) | – | active: 0.164 µM
16 | CCNc1nc(NCC)nc(Oc2ccc(OCC)nn2)n1 | inactive: -2.42% | –
17 | CCCSc1ncc(Cl)c(C(=O)N2CCN(c3ccc(OC)cc3)CC2)n1 | – | inconclusive [inhibitor, single point]
18 | C[C@@]12CCC=C[C@H]1[C@H](c1ccc3ccccc3c1)N(Cc1ccccc1)C2=O | – | inconclusive [inhibitor, single point]
19 | COc1cc2c(cc1OC)CN(C(C)C(=O)N1CCc3ccccc31)CC2 (configuration not stated) | – | inconclusive [inhibitor, single point]
20 | CCc1nc2ccccc2c(C(=O)OCC(=O)NC2CC2)c1C | – | inconclusive [inhibitor, partial curve]
21 | CCOc1ccccc1NC(=O)Cn1nnc(C(=O)NCc2ccc3c(c2)OCO3)c1N | – | active: 4.11 µM
22 | CC(=NNC(=O)c1ccncc1)c1ccccc1Cl | inactive: 8.45% | –
